Results on 115 sequences are retold here after the BET-seq Pho4 binding data (Le et al. 2018).

The other results are listed elsewhere or left out. The energies were worked out here from pooled read counts, against the library average; single values are noisy.

For this test, the target named is T1, Pho4 (S. cerevisiae) (UniProt P07270).
T1 sequence: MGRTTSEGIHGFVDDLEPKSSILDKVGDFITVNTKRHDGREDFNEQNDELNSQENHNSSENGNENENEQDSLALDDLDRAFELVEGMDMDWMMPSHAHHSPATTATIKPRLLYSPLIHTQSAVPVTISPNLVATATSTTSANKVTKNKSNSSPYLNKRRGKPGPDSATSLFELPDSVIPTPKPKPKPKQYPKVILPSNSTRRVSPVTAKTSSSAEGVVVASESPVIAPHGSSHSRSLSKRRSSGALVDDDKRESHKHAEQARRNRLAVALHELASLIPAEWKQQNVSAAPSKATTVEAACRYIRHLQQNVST
The experiment in a line: relative binding free energy (BET-seq); higher = weaker binding. The conditions noted are these: reference: library average.
For ATTGTCACGTGATGAA, the “relative binding free energy” value is 0.15 kcal/mol.

Consider CGTAGCACGTGGGTTG, for which the “relative binding free energy” value was -0.29 kcal/mol.

TGGGACACGTGGGTGT: the “relative binding free energy” value is -0.06 kcal/mol.

For TGGGGCACGTGCGTCG, the “relative binding free energy” value is -0.17 kcal/mol.

CGTTTCACGTGAGGGA: the “relative binding free energy” value turned out to be 0.37 kcal/mol.

On to TATGTCACGTGGATAA, for which the “relative binding free energy” value was 0.05 kcal/mol.

Turning to AATCGCACGTGGGTTA, the “relative binding free energy” value is -0.14 kcal/mol.

For TTGTTCACGTGTCTGG, the “relative binding free energy” value was 0.41 kcal/mol.

Take GGGATCACGTGACTGG: the “relative binding free energy” value stood at 0.44 kcal/mol.

As to GTGTGCACGTGCAAGT, the “relative binding free energy” value was found to be 0.07 kcal/mol.

Consider ACGAGCACGTGAGGGG, for which the “relative binding free energy” value was found to be 0.03 kcal/mol.

With ATAGTCACGTGGTTTA, the “relative binding free energy” value was found to be 0.12 kcal/mol.

Take GTAATCACGTGTTGTG: the “relative binding free energy” value was 0.23 kcal/mol.

Turning to GGTATCACGTGTAAAT, the “relative binding free energy” value worked out at 0.19 kcal/mol.

Consider GTTAACACGTGTAAGT, for which the “relative binding free energy” value is 0.12 kcal/mol.

TTGACCACGTGGGGAG: the “relative binding free energy” value was -0.1 kcal/mol.

In the case of TGCTGCACGTGATTGA, the “relative binding free energy” value turned out to be 0.27 kcal/mol.

In the case of GGAATCACGTGTATGA, the “relative binding free energy” value was determined as 0.2 kcal/mol.

For the sequence ATGGGCACGTGAGATC, the “relative binding free energy” value was 0.11 kcal/mol.

With GGTAGCACGTGATAGG, the “relative binding free energy” value is -0.06 kcal/mol.

For the sequence CTTATCACGTGTTTTA, the “relative binding free energy” value came out at 0.16 kcal/mol.

In the case of CGGGGCACGTGGTCGT, the “relative binding free energy” value is -0.03 kcal/mol.

With AAGGACACGTGGGTTG, the “relative binding free energy” value is -0.03 kcal/mol.

Take TCAATCACGTGGTGTG: the “relative binding free energy” value was 0.11 kcal/mol.

Regarding CGGTGCACGTGTCGGA, the “relative binding free energy” value is 0.1 kcal/mol.

Take ATCTGCACGTGGAATG: the “relative binding free energy” value was found to be 0.14 kcal/mol.

As to AAGTGCACGTGGTTGG, the “relative binding free energy” value is -0.05 kcal/mol.

For GACGTCACGTGTGAGG, the “relative binding free energy” value amounted to 0.28 kcal/mol.

TGGTACACGTGGCGGC: the “relative binding free energy” value was found to be 0.1 kcal/mol.

GGCGGCACGTGAGCGT: the “relative binding free energy” value stood at 0.11 kcal/mol.

Turning to GTGAACACGTGTGTGT, the “relative binding free energy” value is -0.01 kcal/mol.

Consider GTCTGCACGTGCTTGG, for which the “relative binding free energy” value is 0.04 kcal/mol.

On to GTTAACACGTGTTAAT, for which the “relative binding free energy” value amounted to 0.1 kcal/mol.

For the sequence TTAAACACGTGTCGTG, the “relative binding free energy” value was -0.06 kcal/mol.

Regarding GGGTACACGTGGATAA, the “relative binding free energy” value was determined as 0.03 kcal/mol.

Consider TTGGGCACGTGTAGTG, for which the “relative binding free energy” value turned out to be 0 kcal/mol.

Consider ATATGCACGTGTAGAT, for which the “relative binding free energy” value is 0.18 kcal/mol.

For TGTATCACGTGTAAAG, the “relative binding free energy” value is -0.01 kcal/mol.

For the sequence TGTTGCACGTGAAATG, the “relative binding free energy” value turned out to be 0.21 kcal/mol.

For GCGATCACGTGGAGGT, the “relative binding free energy” value came to 0.25 kcal/mol.

On to GGTCGCACGTGGGTTG, for which the “relative binding free energy” value is -0.11 kcal/mol.

On to TGGGGCACGTGCCTGA, for which the “relative binding free energy” value was -0.15 kcal/mol.

With GTTTGCACGTGCGCGG, the “relative binding free energy” value was -0.17 kcal/mol.

For GATAACACGTGGGTTG, the “relative binding free energy” value was -0.12 kcal/mol.

For ATTGTCACGTGGGGCC, the “relative binding free energy” value is 0.03 kcal/mol.

On to GGCGTCACGTGTAAAT, for which the “relative binding free energy” value worked out at 0.26 kcal/mol.

For the sequence GGGAGCACGTGTGTGG, the “relative binding free energy” value is -0.06 kcal/mol.

With GAGGGCACGTGTTGAG, the “relative binding free energy” value amounted to 0.08 kcal/mol.

For the sequence TTCAACACGTGGATTT, the “relative binding free energy” value came out at 0.16 kcal/mol.

Consider CGTATCACGTGGTCGG, for which the “relative binding free energy” value was -0.02 kcal/mol.

Turning to CTGTTCACGTGGGATT, the “relative binding free energy” value was determined as 0.24 kcal/mol.

Regarding TTGGGCACGTGGGTGG, the “relative binding free energy” value is -0.18 kcal/mol.

For GGGGTCACGTGATGAA, the “relative binding free energy” value was found to be 0.44 kcal/mol.

In the case of GTGCGCACGTGGGATG, the “relative binding free energy” value was -0.08 kcal/mol.

On to ATATTCACGTGGCGTG, for which the “relative binding free energy” value stood at 0.03 kcal/mol.

With GAGTGCACGTGGACGG, the “relative binding free energy” value amounted to 0.09 kcal/mol.

Regarding AGGTGCACGTGAAGTA, the “relative binding free energy” value was found to be 0.11 kcal/mol.

In the case of TGTGACACGTGCGGGT, the “relative binding free energy” value was -0.04 kcal/mol.

Turning to GAGGGCACGTGAAGGC, the “relative binding free energy” value was 0.13 kcal/mol.

Consider AGAGACACGTGGTCTG, for which the “relative binding free energy” value amounted to 0.02 kcal/mol.

On to GTTAACACGTGGTACT, for which the “relative binding free energy” value is 0.03 kcal/mol.

For the sequence GGTTCCACGTGTTTTT, the “relative binding free energy” value came out at 0.16 kcal/mol.

For TGGCACACGTGAGGGC, the “relative binding free energy” value is 0.24 kcal/mol.

For ATGTCCACGTGTTTAG, the “relative binding free energy” value is 0.05 kcal/mol.

For the sequence TTAGCCACGTGTGTGA, the “relative binding free energy” value is -0.08 kcal/mol.

In the case of AATGGCACGTGTTCGG, the “relative binding free energy” value is -0.08 kcal/mol.

With AAAGACACGTGGGATG, the “relative binding free energy” value is -0.09 kcal/mol.

For the sequence ATATACACGTGCTTTA, the “relative binding free energy” value was 0 kcal/mol.

On to TATGGCACGTGTAGGT, for which the “relative binding free energy” value was -0.09 kcal/mol.

Regarding AGCGACACGTGTTGTG, the “relative binding free energy” value was 0.07 kcal/mol.

As for GTTTACACGTGTGGTG, the “relative binding free energy” value stood at 0.11 kcal/mol.

For the sequence TTGCTCACGTGGGGGT, the “relative binding free energy” value was 0.12 kcal/mol.

Take GATGTCACGTGATGGG: the “relative binding free energy” value came out at 0.28 kcal/mol.

As for TGGTTCACGTGTAAGC, the “relative binding free energy” value is 0.27 kcal/mol.

As for TTGAGCACGTGGGGGC, the “relative binding free energy” value is -0.21 kcal/mol.

As for GTGGTCACGTGGCTCT, the “relative binding free energy” value was found to be 0.05 kcal/mol.

Take CGGTTCACGTGGAGGT: the “relative binding free energy” value amounted to 0.27 kcal/mol.

As for TTCGACACGTGTTGGA, the “relative binding free energy” value turned out to be 0.14 kcal/mol.

Consider GTGTTCACGTGAGCAG, for which the “relative binding free energy” value was 0.28 kcal/mol.

Turning to AATGACACGTGTTTGT, the “relative binding free energy” value is 0.02 kcal/mol.

Turning to GAATTCACGTGCTTTT, the “relative binding free energy” value stood at 0.38 kcal/mol.

Consider TGGATCACGTGGCTGA, for which the “relative binding free energy” value turned out to be 0.05 kcal/mol.

Regarding ATGATCACGTGGGAAG, the “relative binding free energy” value came out at 0.12 kcal/mol.

GCGTGCACGTGTGTTG: the “relative binding free energy” value was 0.09 kcal/mol.

With AGGTGCACGTGGACGG, the “relative binding free energy” value was found to be 0.04 kcal/mol.

Take CTGTGCACGTGGCTGG: the “relative binding free energy” value was -0.18 kcal/mol.

As to TTGATCACGTGAAGAT, the “relative binding free energy” value worked out at 0.3 kcal/mol.

TGGAGCACGTGACGTG: the “relative binding free energy” value amounted to 0.14 kcal/mol.

On to CGAAACACGTGGTTGT, for which the “relative binding free energy” value is -0.06 kcal/mol.

As to TTGTGCACGTGGGAGA, the “relative binding free energy” value was -0.13 kcal/mol.

As to GGGGGCACGTGATCCG, the “relative binding free energy” value is 0.02 kcal/mol.

As for GACATCACGTGGTGGT, the “relative binding free energy” value is 0.16 kcal/mol.

On to ATGCTCACGTGTGTCT, for which the “relative binding free energy” value was 0.22 kcal/mol.

In the case of AGGTGCACGTGGGAAT, the “relative binding free energy” value was -0.13 kcal/mol.

In the case of TAACTCACGTGTGGTC, the “relative binding free energy” value was determined as 0.35 kcal/mol.

In the case of GTTTCCACGTGTGTGT, the “relative binding free energy” value is 0.14 kcal/mol.

With GTAGCCACGTGGTTTT, the “relative binding free energy” value stood at 0.01 kcal/mol.

Regarding TCGAGCACGTGGTGGC, the “relative binding free energy” value is -0.21 kcal/mol.

On to TGATTCACGTGTTTTA, for which the “relative binding free energy” value worked out at 0.4 kcal/mol.

TGTTTCACGTGGTCAC: the “relative binding free energy” value is 0.3 kcal/mol.

In the case of TAGGGCACGTGTAAGG, the “relative binding free energy” value came to 0.17 kcal/mol.

As for TGGTCCACGTGTGTGA, the “relative binding free energy” value is -0.07 kcal/mol.

For AAGTGCACGTGTATAG, the “relative binding free energy” value is -0.01 kcal/mol.

AATGTCACGTGGTTGA: the “relative binding free energy” value stood at 0.04 kcal/mol.

For TTTAGCACGTGTGGTG, the “relative binding free energy” value was -0.03 kcal/mol.

Turning to TGGTTCACGTGTGGAT, the “relative binding free energy” value was determined as 0.43 kcal/mol.

With GTTCACACGTGGGGAT, the “relative binding free energy” value was determined as 0.06 kcal/mol.

Consider GTGGGCACGTGGCAAT, for which the “relative binding free energy” value is -0.11 kcal/mol.

For GAAGTCACGTGGGAGG, the “relative binding free energy” value amounted to 0.02 kcal/mol.

TTTATCACGTGCGGTG: the “relative binding free energy” value was 0.2 kcal/mol.

For the sequence AGGGGCACGTGCGCGT, the “relative binding free energy” value is -0.14 kcal/mol.

In the case of TTGATCACGTGGATGC, the “relative binding free energy” value was found to be 0.15 kcal/mol.

As for AAGTGCACGTGGTTTC, the “relative binding free energy” value was -0.11 kcal/mol.

As for AAATTCACGTGATATG, the “relative binding free energy” value stood at 0.38 kcal/mol.

ATGGACACGTGGGTAC: the “relative binding free energy” value is -0.14 kcal/mol.
